This note sets out measurements from PMC12820563, “FoxP3 forms a head-to-head dimer in vivo and stabilizes its multimerization on adjacent microsatellites”.

The list shows a part of the results.

The target of the test is T1, MBP-FoxP1dN (Mus musculus, UniProt P58462 326-579).
T1 sequence: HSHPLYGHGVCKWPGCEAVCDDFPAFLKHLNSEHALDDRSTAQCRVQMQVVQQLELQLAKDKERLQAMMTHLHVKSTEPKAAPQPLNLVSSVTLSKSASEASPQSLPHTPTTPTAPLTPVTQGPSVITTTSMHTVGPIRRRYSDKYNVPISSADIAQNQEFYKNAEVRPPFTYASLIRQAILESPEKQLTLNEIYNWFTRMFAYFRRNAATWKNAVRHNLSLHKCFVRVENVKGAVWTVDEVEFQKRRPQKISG
Put plainly: PD-seq (MBP pull-down with sequencing); 20 mM Tris-HCl pH 7.5, 100 mM NaCl, 1.5 mM MgCl2, 0.4 uM protein, 0.1 uM dsDNA library, 30 min, room temperature, amylose pull-down; high values mean tight binding. As to conditions: protein: recombinant; tags: His6-MBP; chain copies: 2; dsDNA, one strand shown. Put shortly:
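A fragment of mouse FoxP3 or FoxP1 without its N-terminus, carrying a His6-MBP tag and produced in E. coli, was combined at 0.4 µM with a 0.1 µM degenerate double-stranded DNA library filled in with Klenow. The mixture sat for 30 min at room temperature in Tris pH 7.5 buffer containing NaCl and MgCl2. Protein–DNA complexes were captured on amylose resin, washed three times, and the DNA was freed with proteinase K, barcoded by PCR and sequenced on Illumina. Binding is expressed as reads-per-million enrichment of pull-down over input, with replicates pooled.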
As to “GATGATTGTTCTCCCAGCTGATGAATTAGGTTTTTCGAGTAAACAAATTTTCCTAATCTTTCTGTTCAAGCGCCATCTAC”, the binding signal was 1 RPM ratio (pull-down/input).
For “GATGATTGTTCTCCCAGCTGATGAATTGCAATTCTCGAGTAAACAAATTTTCCTAATCTTTCTGTTCAAGCGCCATCTAC” the value was 1.38 RPM ratio (pull-down/input).
Turning to “GATGATTGTTCTCCCAGCTGATGAATTTGCGGCTTCGAGTAAACAAATTTTCCTAATCTTTCTGTTCAAGCGCCATCTAC”, the binding signal was 0.962 RPM ratio (pull-down/input).
For “GATGATTGTTCTCCCAGCTGATGAATTTCGTCTGTCGAGTAAACAAATTTTCCTAATCTTTCTGTTCAAGCGCCATCTAC” the value was 0.863 RPM ratio (pull-down/input).
In the case of “GATGATTGTTCTCCCAGCTGATGAATTATCGCGTTCGAGTAAACAAATTTTCCTAATCTTTCTGTTCAAGCGCCATCTAC” it was 1.07 RPM ratio (pull-down/input).
In the case of “GATGATTGTTCTCCCAGCTGATGAATTGTTGTTCTCGAGTAAACAAATTTTCCTAATCTTTCTGTTCAAGCGCCATCTAC” it was 2.58 RPM ratio (pull-down/input); in that of “GATGATTGTTCTCCCAGCTGATGAATTTTTGGTCTCGAGTAAACAAATTTTCCTAATCTTTCTGTTCAAGCGCCATCTAC”, 0.878 RPM ratio (pull-down/input).
Regarding “GATGATTGTTCTCCCAGCTGATGAATTAATCCAGTCGAGTAAACAAATTTTCCTAATCTTTCTGTTCAAGCGCCATCTAC”, the binding signal is 0.858 RPM ratio (pull-down/input).
“GATGATTGTTCTCCCAGCTGATGAATTCGTCGGATCGAGTAAACAAATTTTCCTAATCTTTCTGTTCAAGCGCCATCTAC”: the binding signal was 0.841 RPM ratio (pull-down/input).
For the sequence “GATGATTGTTCTCCCAGCTGATGAATTCGATATTTCGAGTAAACAAATTTTCCTAATCTTTCTGTTCAAGCGCCATCTAC”, the binding signal is 0.936 RPM ratio (pull-down/input).
For “GATGATTGTTCTCCCAGCTGATGAATTCGGTACTTCGAGTAAACAAATTTTCCTAATCTTTCTGTTCAAGCGCCATCTAC” the value was 0.918 RPM ratio (pull-down/input).
With “GATGATTGTTCTCCCAGCTGATGAATTCGCTTTTTCGAGTAAACAAATTTTCCTAATCTTTCTGTTCAAGCGCCATCTAC”, the binding signal is 0.922 RPM ratio (pull-down/input).
In the case of “GATGATTGTTCTCCCAGCTGATGAATTAAAGCCCTCGAGTAAACAAATTTTCCTAATCTTTCTGTTCAAGCGCCATCTAC” it was 0.831 RPM ratio (pull-down/input); in that of “GATGATTGTTCTCCCAGCTGATGAATTCATAATGTCGAGTAAACAAATTTTCCTAATCTTTCTGTTCAAGCGCCATCTAC”, 1.07 RPM ratio (pull-down/input).
For “GATGATTGTTCTCCCAGCTGATGAATTTACTACGTCGAGTAAACAAATTTTCCTAATCTTTCTGTTCAAGCGCCATCTAC”, the binding signal is 1.21 RPM ratio (pull-down/input).
Turning to “GATGATTGTTCTCCCAGCTGATGAATTTATCGAATCGAGTAAACAAATTTTCCTAATCTTTCTGTTCAAGCGCCATCTAC”, the binding signal was 1.13 RPM ratio (pull-down/input).
In the case of “GATGATTGTTCTCCCAGCTGATGAATTGGCCCTTTCGAGTAAACAAATTTTCCTAATCTTTCTGTTCAAGCGCCATCTAC” it was 0.782 RPM ratio (pull-down/input); in that of “GATGATTGTTCTCCCAGCTGATGAATTTCCCTTGTCGAGTAAACAAATTTTCCTAATCTTTCTGTTCAAGCGCCATCTAC”, 0.838 RPM ratio (pull-down/input).
In the case of “GATGATTGTTCTCCCAGCTGATGAATTAGACGCTTCGAGTAAACAAATTTTCCTAATCTTTCTGTTCAAGCGCCATCTAC” it was 0.937 RPM ratio (pull-down/input); in that of “GATGATTGTTCTCCCAGCTGATGAATTTTGTTACTCGAGTAAACAAATTTTCCTAATCTTTCTGTTCAAGCGCCATCTAC”, 1.24 RPM ratio (pull-down/input).
For “GATGATTGTTCTCCCAGCTGATGAATTAGTGCGATCGAGTAAACAAATTTTCCTAATCTTTCTGTTCAAGCGCCATCTAC” the value was 1.01 RPM ratio (pull-down/input); for “GATGATTGTTCTCCCAGCTGATGAATTCGCGTACTCGAGTAAACAAATTTTCCTAATCTTTCTGTTCAAGCGCCATCTAC”, 0.843 RPM ratio (pull-down/input).
As to “GATGATTGTTCTCCCAGCTGATGAATTGCGTTAGTCGAGTAAACAAATTTTCCTAATCTTTCTGTTCAAGCGCCATCTAC”, the binding signal is 1.17 RPM ratio (pull-down/input).
For the sequence “GATGATTGTTCTCCCAGCTGATGAATTCCGCAGATCGAGTAAACAAATTTTCCTAATCTTTCTGTTCAAGCGCCATCTAC”, the binding signal is 0.785 RPM ratio (pull-down/input).
For “GATGATTGTTCTCCCAGCTGATGAATTAGATGTTTCGAGTAAACAAATTTTCCTAATCTTTCTGTTCAAGCGCCATCTAC” the value was 1.19 RPM ratio (pull-down/input); for “GATGATTGTTCTCCCAGCTGATGAATTGAGTATATCGAGTAAACAAATTTTCCTAATCTTTCTGTTCAAGCGCCATCTAC”, 1.1 RPM ratio (pull-down/input).
For the sequence “GATGATTGTTCTCCCAGCTGATGAATTGGGCTTATCGAGTAAACAAATTTTCCTAATCTTTCTGTTCAAGCGCCATCTAC”, the binding signal was 0.909 RPM ratio (pull-down/input).
Regarding “GATGATTGTTCTCCCAGCTGATGAATTTTAAATCTCGAGTAAACAAATTTTCCTAATCTTTCTGTTCAAGCGCCATCTAC”, the binding signal is 0.797 RPM ratio (pull-down/input).
Take “GATGATTGTTCTCCCAGCTGATGAATTTAACCCATCGAGTAAACAAATTTTCCTAATCTTTCTGTTCAAGCGCCATCTAC”: the binding signal was 0.855 RPM ratio (pull-down/input).
For “GATGATTGTTCTCCCAGCTGATGAATTCCCACAGTCGAGTAAACAAATTTTCCTAATCTTTCTGTTCAAGCGCCATCTAC” the value was 0.823 RPM ratio (pull-down/input); for “GATGATTGTTCTCCCAGCTGATGAATTCTCTAAATCGAGTAAACAAATTTTCCTAATCTTTCTGTTCAAGCGCCATCTAC”, 1.13 RPM ratio (pull-down/input).
In the case of “GATGATTGTTCTCCCAGCTGATGAATTGAGTCGGTCGAGTAAACAAATTTTCCTAATCTTTCTGTTCAAGCGCCATCTAC” it was 0.747 RPM ratio (pull-down/input).
For the sequence “GATGATTGTTCTCCCAGCTGATGAATTCCGCAGTTCGAGTAAACAAATTTTCCTAATCTTTCTGTTCAAGCGCCATCTAC”, the binding signal is 0.746 RPM ratio (pull-down/input).
For “GATGATTGTTCTCCCAGCTGATGAATTCCCTGGCTCGAGTAAACAAATTTTCCTAATCTTTCTGTTCAAGCGCCATCTAC” the value was 0.716 RPM ratio (pull-down/input); for “GATGATTGTTCTCCCAGCTGATGAATTCCTTAACTCGAGTAAACAAATTTTCCTAATCTTTCTGTTCAAGCGCCATCTAC”, 0.862 RPM ratio (pull-down/input).
In the case of “GATGATTGTTCTCCCAGCTGATGAATTGGAACAATCGAGTAAACAAATTTTCCTAATCTTTCTGTTCAAGCGCCATCTAC” it was 1.4 RPM ratio (pull-down/input).
For “GATGATTGTTCTCCCAGCTGATGAATTTACCAGCTCGAGTAAACAAATTTTCCTAATCTTTCTGTTCAAGCGCCATCTAC” the value was 1.05 RPM ratio (pull-down/input).
Regarding “GATGATTGTTCTCCCAGCTGATGAATTCTCCATCTCGAGTAAACAAATTTTCCTAATCTTTCTGTTCAAGCGCCATCTAC”, the binding signal is 0.828 RPM ratio (pull-down/input).
In the case of “GATGATTGTTCTCCCAGCTGATGAATTTCTCCACTCGAGTAAACAAATTTTCCTAATCTTTCTGTTCAAGCGCCATCTAC” it was 0.945 RPM ratio (pull-down/input); in that of “GATGATTGTTCTCCCAGCTGATGAATTTAAACGATCGAGTAAACAAATTTTCCTAATCTTTCTGTTCAAGCGCCATCTAC”, 0.917 RPM ratio (pull-down/input).
